One series relates to GL261. In words: cell viability relative to siNT1 (ATP content); H4 human neuroglioma and GL261 mouse glioma; higher = less toxic. The conditions noted are these: siRNA concentration 25 nM; 96 h; mouse.
For the next series, the system named is H4. The series is described as above. The conditions noted are these: siRNA concentration 10 nM; 96 h; human.

The sequences are guide strands of siRNAs; only the seed at positions 2 to 7 varies.
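Further: cells reverse transfected with siRNA duplexes via lipid reagent, ATP read by luminescence, triplicate wells, values scaled to mean viability with non-targeting control siNT1.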

As to UGAACUAACAUGUAAACCA, the cell viability in the series on GL261 came out at 67.2%; in the series with H4 it was 75.3%.
In the case of UGAACUCACAUGUAAACCA, the results for the cell viability in the series with GL261 and in the series on H4 were 17.7% and 12.6%, respectively.
With UGAACUGACAUGUAAACCA, the cell viability with GL261 is 41.3%; with H4 it was 83.3%.
Regarding UGAACUUACAUGUAAACCA, the values for the cell viability in the series with GL261 and in the series on H4 were 62.3% and 93.9%, respectively.
In the same order, the values of UGAAGAAACAUGUAAACCA are 28.4% and 104%.
In the same order, the values of UGAAGACACAUGUAAACCA are 22.7% and 13.2%.
In the same order, the values of UGAAGAGACAUGUAAACCA are 31.4% and 66.6%.
UGAAGAUACAUGUAAACCA: the cell viability with GL261 came to 9.33%; in the series on H4, 34%.
In the same order, the values of UGAAGCAACAUGUAAACCA are 39.8% and 80.5%.
With UGAAGCCACAUGUAAACCA, the cell viability was 13.3% in the series with GL261 and 13.1% in the series on H4.
In the same order, the values of UGAAGCGACAUGUAAACCA are 49.2% and 80.3%.
As for UGAAGCUACAUGUAAACCA, the cell viability came out at 5.64% in the series on GL261 and 23.5% in the series with H4.
Turning to UGAAGGAACAUGUAAACCA, the cell viability turned out to be 20.8% with GL261 and 52.5% in the series on H4.
For the sequence UGAAGGCACAUGUAAACCA, the cell viability in the series on GL261 was found to be 6.92%; in the series with H4, 20.1%.
In the case of UGAAGGGACAUGUAAACCA, the results for the cell viability in the series with GL261 and with H4 were 13.4% and 38.6%, respectively.
In the same order, the values of UGAAGGUACAUGUAAACCA are 8.69% and 31.9%.
Consider UGAAGUAACAUGUAAACCA, for which the results for the cell viability in the series with GL261 and in the series on H4 were 65.9% and 91%, respectively.
On to UGAAGUCACAUGUAAACCA, for which the values for the cell viability in the series with GL261 and in the series with H4 were 4.25% and 18.3%, respectively.
In the case of UGAAGUGACAUGUAAACCA, the values for the cell viability with GL261 and with H4 were 40.1% and 79.5%, respectively.
In the same order, the values of UGAAGUUACAUGUAAACCA are 14% and 47.2%.
On to UGAAUAAACAUGUAAACCA, for which the cell viability was 82.8% in the series on GL261 and 98.2% with H4.
For UGAAUACACAUGUAAACCA, in that order: 39.2% and 76.7%.
For UGAAUAGACAUGUAAACCA, in that order: 62.4% and 103%.
For UGAAUAUACAUGUAAACCA, in that order: 59.6% and 86.2%.
Take UGAAUCAACAUGUAAACCA: the cell viability in the series on GL261 was 79.3%; in the series with H4, 94.2%.
In the case of UGAAUCCACAUGUAAACCA, the cell viability with GL261 amounted to 34.6%; in the series on H4 it was 38.3%.
In the same order, the values of UGAAUCGACAUGUAAACCA are 76.8% and 90.2%.
In the same order, the values of UGAAUCUACAUGUAAACCA are 89% and 80.6%.
In the case of UGAAUGAACAUGUAAACCA, the cell viability in the series with GL261 is 46.6%; with H4, 92.2%.
In the same order, the values of UGAAUGCACAUGUAAACCA are 27.6% and 68%.
In the same order, the values of UGAAUGGACAUGUAAACCA are 13.4% and 64.4%.
Take UGAAUGUACAUGUAAACCA: the cell viability with GL261 turned out to be 23.2%; in the series with H4, 55.9%.
In the same order, the values of UGAAUUAACAUGUAAACCA are 56.5% and 108%.
For UGAAUUCACAUGUAAACCA, in that order: 21.9% and 60.8%.
As to UGAAUUGACAUGUAAACCA, the values for the cell viability with GL261 and with H4 were 58% and 103%, respectively.
For the sequence UGAAUUUACAUGUAAACCA, the cell viability in the series on GL261 was found to be 52.1%; in the series on H4 it was 97%.
In the same order, the values of UGACAAAACAUGUAAACCA are 34.2% and 101%.
In the same order, the values of UGACAACACAUGUAAACCA are 22.6% and 61.4%.
In the same order, the values of UGACAAGACAUGUAAACCA are 26.3% and 86%.
As to UGACAAUACAUGUAAACCA, the cell viability in the series with GL261 is 28.7%; in the series on H4, 66.3%.
In the same order, the values of UGACACAACAUGUAAACCA are 60.5% and 62.3%.
In the same order, the values of UGACACCACAUGUAAACCA are 16.4% and 12.9%.
For UGACACGACAUGUAAACCA, in that order: 58.5% and 75.4%.
Take UGACACUACAUGUAAACCA: the results for the cell viability in the series with GL261 and in the series on H4 were 36.2% and 26.2%, respectively.
Consider UGACAGAACAUGUAAACCA, for which the cell viability in the series with GL261 came to 60.4%; with H4, 81.3%.

The cell viability is a read-out of living cells in per cent, often relative to untreated cells.
